Measurements taken from article PMC4336329 (PLoS ONE, 2015).
In all, about 310,000 compounds went through this assay and about 2,200 (0.71%) showed an effect of 50% or more. Effects have a minus sign here. The list shows a part of the results.

Target: human ether-à-go-go-related gene (hERG) potassium channel (human, UniProt Q12809)
Assay: primary screen, population patch clamp on CHO cells stably expressing hERG

Chain of human ether-à-go-go-related gene (hERG) potassium channel (Q12809 whole entry, looked up): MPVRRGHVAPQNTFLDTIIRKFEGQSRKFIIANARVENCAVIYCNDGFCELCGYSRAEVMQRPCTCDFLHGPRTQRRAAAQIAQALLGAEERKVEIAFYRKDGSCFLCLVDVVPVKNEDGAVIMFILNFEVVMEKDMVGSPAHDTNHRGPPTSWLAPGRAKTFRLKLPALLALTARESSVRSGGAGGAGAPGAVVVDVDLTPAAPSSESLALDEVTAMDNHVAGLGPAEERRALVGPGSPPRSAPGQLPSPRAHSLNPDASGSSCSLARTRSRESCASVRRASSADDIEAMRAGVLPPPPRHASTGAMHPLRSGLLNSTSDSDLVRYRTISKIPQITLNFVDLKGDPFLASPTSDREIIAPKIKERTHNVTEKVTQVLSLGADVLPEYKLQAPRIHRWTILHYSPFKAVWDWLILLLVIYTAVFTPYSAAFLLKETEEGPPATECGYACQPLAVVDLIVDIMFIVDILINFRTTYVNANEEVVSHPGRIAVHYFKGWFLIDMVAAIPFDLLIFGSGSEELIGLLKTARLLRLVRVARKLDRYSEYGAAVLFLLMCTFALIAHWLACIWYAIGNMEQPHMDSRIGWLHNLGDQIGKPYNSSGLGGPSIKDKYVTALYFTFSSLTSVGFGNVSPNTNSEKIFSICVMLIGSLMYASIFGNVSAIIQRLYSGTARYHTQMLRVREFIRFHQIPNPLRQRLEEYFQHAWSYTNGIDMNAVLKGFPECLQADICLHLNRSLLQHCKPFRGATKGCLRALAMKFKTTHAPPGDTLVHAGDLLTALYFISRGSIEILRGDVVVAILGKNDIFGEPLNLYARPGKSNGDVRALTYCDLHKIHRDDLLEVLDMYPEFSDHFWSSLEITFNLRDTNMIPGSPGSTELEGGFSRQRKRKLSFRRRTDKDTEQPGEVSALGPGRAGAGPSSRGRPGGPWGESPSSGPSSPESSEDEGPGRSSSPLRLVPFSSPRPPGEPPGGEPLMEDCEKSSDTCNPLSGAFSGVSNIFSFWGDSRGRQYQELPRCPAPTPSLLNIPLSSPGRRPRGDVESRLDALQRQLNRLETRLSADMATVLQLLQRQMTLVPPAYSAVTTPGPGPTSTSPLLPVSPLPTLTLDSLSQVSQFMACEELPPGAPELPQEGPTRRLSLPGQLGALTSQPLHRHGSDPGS

| SMILES | hERG current change (%, negative = inhibition) at 1uM |
| --- | --- |
| CCN(CCCNC(=O)CNC(=O)c1nn(-c2ccc(OC)cc2OC)c(=O)c2ccccc12)c1cccc(C)c1 | -0.562% |
| O=C(CCC(=O)OCc1ccc(C(=O)Oc2ccccc2)cc1)Nc1cccc2ccccc12 | 4.78% |
| O=S(=O)(NCCC1CC1(Cl)Cl)c1ccc(Cl)cc1 (stereo not drawn) | 5.55% |
| COC(=O)[C@H](C)NC(=O)Nc1cc(Cl)ccc1C | 5.35% |
| CC12CC[C@H]3[C@@H](CCC4(O)C[C@H](O)CCC34/C=N/NC(=O)c3ccccc3Cl)C1(O)CCC2C1=CC(=O)OC1 (stereo partly drawn) | 11.1% |
| Nc1ccc(-n2c(N)c(C(=O)NCc3ccc4c(c3)OCO4)c3nc4ccccc4nc32)cc1 | 11.6% |
| CCCCOC(=O)CSc1nnc(N)s1 | 3.2% |
| CCCC(=O)Nc1nnc(CCc2ccccc2)s1.Cl | 12.1% |
| Cc1cccc(-n2c(CNC(=O)c3cccc([N+](=O)[O-])c3C)n[nH]c2=S)c1 | 21.9% |
| CC1(C)NC(=O)N(CC(=O)N2CCN(c3cccc(Cl)c3)CC2)C1=O | 6.12% |
| CCn1nc(NS(=O)(=O)c2ccc(NC(C)=O)cc2)c2cc3ccccc3nc21 | 14.3% |
| CSCCC(NC(=O)COc1ccccc1)C(=O)N1CC(C)CC(C)C1 (stereo not drawn) | 3.98% |
| COc1ccc(N2CCN(CCNC(=O)C3CC(=O)N(C4CCCC4)C3)CC2)cc1 (stereo not drawn) | 8.47% |
| Cc1ccc(C)c(C(=O)CCC(=O)NCc2ccc(Cl)cc2)c1 | 11.8% |
| COc1ccccc1CNC(=O)c1ccc(NS(=O)(=O)c2cccs2)cc1 | 8.66% |
| O=Cc1ccc(OCCOc2ccc([N+](=O)[O-])cc2)cc1 | 12.8% |
| CN(C(=O)COC(=O)/C=C/c1ccc2ccccc2n1)C1CCS(=O)(=O)C1 (stereo not drawn) | 12.9% |
| Cc1ccc(/C(N)=N/OC(=O)CN(C)S(=O)(=O)c2ccc(C)cc2)cc1 | 17.5% |
| Cc1ccc(NC(=O)c2cc(-c3ccco3)on2)cc1C | 18.1% |
| CCCCCn1c(=O)c2ccccc2n2c(CCl)nnc12 | -1.66% |
| O=c1cc(-c2ccccc2)c2ccc(O)cc2o1 | 5.92% |
| CCOCCCNC(=O)c1cc2c(=O)[nH]c3ccccc3c2s1 | 10.1% |

| SMILES | hERG current change (%, negative = inhibition) at 1uM |
| --- | --- |
| CCOc1ccccc1N=Nc1c(C)[nH]n(C(N)=S)c1=O | 17.8% |
| O=c1[nH]c(=O)n(Cc2ccco2)c(O)c1C=NCCN1CCOCC1 | 16% |
| Cc1c(Cl)cc(-n2cnnn2)cc1[N+](=O)[O-] | 1.15% |
| O=C(COC(=O)CCC1CCCC1)Nc1ccc(F)cc1Cl | 5.5% |
| CN1C(=O)N(C)C2(c3ccccc3)NC(=O)NC12c1ccccc1 (stereo not drawn) | 11% |
| CCOC(=O)C1CCN(S(=O)(=O)c2ccc(OC)c(Cl)c2Cl)CC1 | 3.11% |
| CC1CCN(c2ccccc2NC(=O)c2ccc(N3CCOCC3)c([N+](=O)[O-])c2)CC1 | -9.35% |
| CCOC(=O)c1cc2c(ccn2C)n1CC(=O)N1C(C)CCCC1C (stereo not drawn) | -1.86% |
| O=Cc1c(C(=O)O)n(Cc2ccccc2Cl)c2ccccc12 | 18.5% |
| CCOc1cc(NC(=O)c2ccccc2C)c(OCC)cc1NC(=O)C1=Cc2ccccc2OC1 | 9.16% |
| CC(=O)Nc1cc(C(=O)OCC(=O)c2ccccc2)ccc1C | 18.7% |
| O=C(COC(=O)c1ccc(NS(=O)(=O)c2cccs2)cc1)NCc1ccco1 | 9.44% |
| COC(=O)c1ccc2c(=O)n(CCCCCC(=O)NC(C)C)c(=O)[nH]c2c1 | -15.2% |
| CC(=O)c1cccc(NC(=O)c2ccc(N(C)S(C)(=O)=O)cc2)c1 | 9.32% |
| CC1Cc2ccccc2N1C(=O)COC(=O)c1ccccc1NCCO (stereo not drawn) | 12.2% |
| COc1cccc(OCc2cc(C(=O)N(Cc3ccccc3)CC3CC3)no2)c1 | 15.2% |
| COc1cccc(NC(=O)C2CCN(S(=O)(=O)c3ccc4c(c3)NC(=O)CO4)CC2)c1 | 13.5% |
| CNCc1cn2cc(Cl)ccc2n1 | 10.4% |
| COC(CSc1ncnc2c1oc1nc3c(cc12)COC(C)(C)C3)OC | -1.17% |
| CC(C)(C)NC(=O)COC(=O)CNC(=O)c1cc(Cl)cc([N+](=O)[O-])c1 | 16.5% |
| CN(C)c1ccncc1C(=O)Nc1ccc(F)cc1F | -0.0931% |
| CCC(C)NC(=O)COc1ccc(OCc2ccccc2)cc1 (stereo not drawn) | 15.5% |

| SMILES | hERG current change (%, negative = inhibition) at 1uM |
| --- | --- |
| CC(=O)c1ccc(NC(=O)c2cc(CC(C)C)nc3ccccc23)cc1 | 12.1% |
| Clc1nc(Cl)nc(-c2cn(-c3ccccc3)c3ccccc23)n1 | 8.15% |
| CN(C)C(=O)NC1c2ccccc2-c2ccccc21 | 19.2% |
| Cc1nn(C)c(C)c1C(C)NC(=O)c1cc(COc2ccc(F)c(F)c2)on1 (stereo not drawn) | 8.84% |
| COc1ccc(CN2CCN(c3ccccc3F)CC2)cc1O | -51.2% |
| COc1ccc(N2CCN(c3ncnc4sc(C(=O)NCC5CCCO5)c(C)c34)CC2)cc1 (stereo not drawn) | -11.6% |
| Cc1ccc(OCCCC(=O)NC(C)c2ccccc2)cc1 (stereo not drawn) | 8.76% |
| CC(Oc1ccccc1)C(=O)N=C1SC2CS(=O)(=O)CC2N1Cc1ccccc1 (stereo not drawn) | 8.74% |
| C=C[C@@H]1c2ccccc2N(S(=O)(=O)c2ccc(C)cc2)[C@H](c2ccccc2C(F)(F)F)C1(C#N)C#N | 14.9% |
| CCn1c(SCC(=O)N2CCc3ccccc32)nnc1-c1ccco1 | 11% |
| CCOc1ccc(CCNC(=O)COC(=O)c2ccc(C)s2)cc1OCC | 17.2% |
| COc1ccc(Cl)cc1NC(=O)C(C)N1CCc2ccccc21 (stereo not drawn) | 8.81% |
| CCN(CC)CCn1c2c(c(SCC(=O)Nc3ccc(C)c(F)c3)nc1=O)CCC2 | -23% |
| COC(=O)c1cc(S(=O)(=O)NCCc2sccc2C)c[nH]1 | 13.5% |
| CC1CCCN(c2ncnc3c2cnn3-c2ccccc2)C1 (stereo not drawn) | 11.7% |
| COc1ccc(OC)c(-c2csc(NC(=O)Cc3cc(OC)c(OC)c(OC)c3)n2)c1 | 8.86% |
| Cc1ccc(-c2nc(CS(=O)CC(=O)NC3CC3)c(C)o2)cc1 (stereo not drawn) | 17.1% |
| COc1ccc(C(=O)c2oc3ccc(OC)cc3c2NC(C)=O)cc1 | 18.5% |
| COc1cccc(NC(=O)Nc2cccc(C)n2)c1 | 21.6% |
| COC(=O)c1ccccc1S(=O)(=O)NCc1nc2nc(C)cc(C)n2n1 | 4.57% |
| N/C(=N\OC(=O)c1ccc(Cl)cc1Cl)c1ccccn1 | -4.39% |
| Cc1ccc(OCC(=O)N(Cc2ccccc2)C2CCS(=O)(=O)C2)c([N+](=O)[O-])n1 (stereo not drawn) | -0.248% |

| SMILES | hERG current change (%, negative = inhibition) at 1uM |
| --- | --- |
| COc1cccc(NC(=S)NC(=O)Cc2ccc(Cl)cc2)c1 | 14.1% |
| O=C(Nc1ccc(O)cc1C(=O)O)c1cccc(Br)c1 | 12% |
| CC(C)(C)n1nnnc1C(c1ccccc1)N1CCc2ccccc2C1 (stereo not drawn) | 15.7% |
| O=C(CCc1c[nH]c2ccccc12)NCc1cccc(Cl)c1 | 6.41% |
| CC1CN(C(=O)N2c3ccccc3Sc3ccccc32)CC(C)O1 (stereo not drawn) | 11.5% |
| CCc1ccc(C(=O)Nc2nc(C)cs2)s1 | 5.16% |
| Brc1ccccc1CN1CCC(N2CCCCC2)CC1 | -3.6% |
| COc1ccc2c(C=O)c[nH]c2c1 | 6.81% |
| O=C(CN1C(=O)NC2(CCOc3ccccc32)C1=O)NCC(F)(F)F (stereo not drawn) | 14.7% |
| Cc1ccc(S(=O)(=O)N(C)/N=C/c2ccc(C(=O)O)cc2)cc1 | 8.19% |
| O=C(N/N=C/c1ccc(N2CCOCC2)cc1)c1ccncc1 | 10.4% |
| CCOc1ccc(S(=O)(=O)N2CCC(C(=O)NCc3ccccc3CN3CCCC3)CC2)cc1 | -26.3% |
| C=C(C)[C@@]12OC3(c4ccccc4)O[C@@H]1C1[C@@H]4O[C@]4(CO)[C@@H](O)[C@]4(O)C(=O)C(C)=C[C@H]4[C@@]1(O3)[C@H](C)[C@H]2OC(=O)/C=C/C=C/c1ccccc1 (stereo partly drawn) | 9.22% |
| CC1(C)C[C@@H](O)CC2(C1)C[C@]1(C)CC(O)[C@H]2C(C)(C)C1 (stereo partly drawn) | 10.7% |
| CCN1C(=O)c2ccc(C(=O)Nc3cccc(C(=O)O)c3)cc2C1=O | 13.2% |
| COc1cc(CN2CCCC(N3CCN(c4ccc(F)cc4)CC3)C2)ccc1F (stereo not drawn) | -37.9% |
| Cc1sc2ncn(CC(=O)N3CCCCC3)c(=O)c2c1S(=O)(=O)N1CCC(C)CC1 | 10.8% |
| CNC(=O)N(C1=NCC(C)S1)c1ccc(F)cc1F (stereo not drawn) | -4.87% |
| COC(=O)C1=CN(C(C)C)C=C(C(=O)OC)C1c1cccc(OC)c1 | 7.57% |
| Cc1ccc(/C=C2\SC(=S)N(CCCC(=O)NNC(=O)c3ccccc3O)C2=O)cc1 | 4.66% |
| O=C(C1CCCCC1)N1CC(=O)N2CCc3ccccc3C2C1 (stereo not drawn) | 16.3% |
